The results in this text go back to PubChem BioAssay AID1963576 (National Center for Advancing Translational Sciences (NCATS), 2024).

Each structure is given as a SMILES string. About 60 (0.1%) of roughly 46,000 compounds were called active. About 3% were inconclusive and are not listed. Calls follow the shape of the dose curve; as a rule, active = well fitted inhibition curve with a large enough effect; inconclusive = small, poorly fitted or top-dose-only effect; inactive = no such curve, though single readings can be large or run the other way. The list shows a part of the results.

This experiment can be described thus: Primary qHTS assay for Inhibitors of ovarian cancer metastasis using an organotypic tumor microenvironment (TME) model. Also: nearly all actives have a fitted effect of over 65% in size.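 As to activity change, negative = inhibition: plate controls were DMSO wells for no effect and tomatine positive control wells for full effect.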 Conditions: SKOV3ip1-GFP adhesion/invasion on 3D omental model, fluorescence; series mostly up to 45.8 µM; activity change, negative = inhibition: at the top concentration. In outline:
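qHTS, 4-pt dose (0.36-46 umol/L); SKOV3ip1-GFP, 1,200 cells/well, no FBS; primary omental fibroblast/mesothelial co-culture 48 h pre-grown; 2 h RT + 16 h 37 C; PBS wash, 4% PFA; GFP count 488/509 nm.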
In general terms: Quantitative high-throughput screening tests each substance at several concentrations.
For the molecule `COc1ccc(-c2cccc(NS(=O)(=O)c3cc(C)c(OC)c(C)c3C)c2)nn1`, the “activity change, negative = inhibition” value was inactive: -3.43%.
Same read-out and setting: as for `CCOc1ccccc1C(=O)N1CC(=O)Nc2ccc(Cl)cc2C1c1ccccc1` (configuration not stated), the figure is inactive: 3.25%; as for `O=C(Cn1c(-c2cccs2)cc2cc(Cl)ccc21)N1CCN(c2ccccc2)CC1`, inactive: -7.41%.
As to `CCc1ccc(NC(=O)c2sc3nc(C)c(Cl)c(C)c3c2N)cc1`, the “activity change, negative = inhibition” value was inactive: 38.7%.
For `CCOC(=O)c1ccc(N2CCN(c3cccc(Cl)c3)CC2)c(NC(=O)Nc2ccc(OC)cc2OC)c1`, the “activity change, negative = inhibition” value was inactive: -10.6%.
As for `COc1ccc(Cl)cc1NC(=O)CN(C)S(=O)(=O)c1ccc2c(c1)CCCN2C(C)=O`, the “activity change, negative = inhibition” value is inactive: 0.212%.
With `C=CCC(CC=C)(CNC(=O)C(=O)Nc1cccc(C(F)(F)F)c1)c1ccccc1`, the “activity change, negative = inhibition” value is inactive: 4.89%.
As to `CC(=O)Nc1cc(C(=O)NCc2ccc(C)cc2)ccc1Sc1ccc(C)cc1`, the result was inactive.
`O=C(CC(c1cccs1)N1Cc2ccccc2C1=O)Nc1ccc(F)c(Cl)c1` (configuration not stated): the “activity change, negative = inhibition” value is inactive: -1.91%.
In the case of `CCc1cccc(C)c1NC(=O)CSc1nc(C)cc(C)c1C(=O)Nc1ccccc1`, the “activity change, negative = inhibition” value is inactive: 0.457%.
In the case of `CCCN1C(=O)C(O)(CC(=O)c2ccc(CC)cc2)c2ccccc21` (configuration not stated), the “activity change, negative = inhibition” value is inactive: 8.99%.
For `Cc1ccc(Oc2c(C(F)(F)F)oc3cc(OCC(=O)NC4CCCCC4)ccc3c2=O)cc1`, the “activity change, negative = inhibition” value was inactive: 1.01%.
`CCC1CN(C(=O)N2CCC(C(=O)NCCN(CC)CC)CC2)c2ccccc2O1` (configuration not stated): the result was inactive.
In the case of `CCOC(=O)CSc1nc2ccccc2c(=O)n1CCc1ccc(OC)c(OC)c1`, the “activity change, negative = inhibition” value was inactive: 0.329%.
Same read-out and setting: as for `COc1ccc(-c2noc(-c3cccnc3NCc3ccco3)n2)cc1`, the figure is inactive: -2.55%.
For the molecule `Cc1cccc(-n2c(=O)c3c(c4cc(C)ccc4n3C)n(CC(=O)NCCC3=CCCCC3)c2=O)c1`, the “activity change, negative = inhibition” value was inactive: 2.45%.
Consider `O=C(NCc1ccc2c(c1)OCO2)c1ccc2c(c1)N(Cc1cccc(Cl)c1)C(=O)c1ccccc1S2`, for which the “activity change, negative = inhibition” value was inactive: -5.68%.
`Cc1ccc(C(=O)c2sc(Nc3ccccc3F)c(S(=O)(=O)c3ccccc3)c2N)c(C)c1`: the “activity change, negative = inhibition” value was inactive: -5.39%.
For `Cc1cccc(N2CCN(C(=O)C3CCN(S(=O)(=O)c4c(C)noc4/C=C/c4ccccc4F)CC3)CC2)c1C`, the “activity change, negative = inhibition” value was inactive: -5.78%.
As to `Cc1cc(=O)n2c(C(=O)Nc3ccc(C)c(Cl)c3)c(C(=O)Nc3ccccc3)sc2n1`, the call was inactive.
Regarding `CCN1CCN(C(=O)c2ccc3c(c2)N(Cc2ccc(Cl)cc2)C(=O)c2ccccc2S3(=O)=O)CC1`, the “activity change, negative = inhibition” value was inactive: -8.13%.
Turning to `COc1ccc(C(=O)N(Cc2sccc2C)C2CCS(=O)(=O)C2)cc1Cl` (configuration not stated), the “activity change, negative = inhibition” value was inactive: -15%.
Turning to `CCOC(=O)c1c(Nc2cccc(O)c2)nnc(-c2ccccc2)c1-c1ccccc1`, the “activity change, negative = inhibition” value is inactive: -2.99%.
Same read-out and setting: then `COc1ccc(Cl)cc1NC(=O)Cn1nnc2sc3c(c2c1=O)CCC(C(C)(C)C)C3` (configuration not stated), with inactive: 0.426%.
On to `Cc1ccc(Cl)cc1N1CCN(C(=O)CN2C(=O)COc3ccc(S(=O)(=O)N4CCOCC4)cc32)CC1`, for which the “activity change, negative = inhibition” value is inactive: -1.02%.
Still for that read-out and setting: as for `CCc1cccc(C)c1NS(=O)(=O)c1c(C(=O)N2CCCCCC2)c(C)n(C)c1C`, the figure is inactive: 3.19%.
With `Cc1cc(C)c(Cn2c3ccccc3c3cnn(CC(=O)NCCc4ccccc4)c(=O)c32)c(C)c1`, the “activity change, negative = inhibition” value was inactive: 0.792%.
For the molecule `O=C(NCc1ccc(F)cc1)c1ccc(CSc2nc3ccncc3n2Cc2ccc(F)cc2)cc1`, the “activity change, negative = inhibition” value was inactive: -10.3%.
In the case of `CC(=O)c1ccc(NC2=NS(=O)(=O)c3ccccc32)cc1`, the “activity change, negative = inhibition” value is inactive: 4.12%.
Consider `O=C(Nc1nnc(S(=O)(=O)N2CCCCCC2)s1)c1ccc(Br)cc1`, for which the “activity change, negative = inhibition” value was inactive: -0.568%.
Take `COc1ccc(CCNC(=O)c2ccc3c(c2)CCN3S(=O)(=O)c2ccc(Cl)cc2)cc1`: the “activity change, negative = inhibition” value is inactive: 5.11%.
For the molecule `CCOc1ccccc1C1CC(=O)NC(C)=C1C(=O)OC1CCCCCC1` (configuration not stated), the “activity change, negative = inhibition” value is inactive: -25.4%.
For the molecule `COc1ccc(NC(=O)C2CCCN(S(=O)(=O)c3cn(C)cn3)C2)cc1Cl` (configuration not stated), the “activity change, negative = inhibition” value is inactive: -13%.
Turning to `COc1ccc(-n2c3c(c(=O)[nH]c2=O)C(NC(C)=O)(C(F)(F)F)C(=O)N3)cc1` (configuration not stated), the “activity change, negative = inhibition” value is inactive: -4.74%.
In the case of `Cc1cccc(Oc2nc3ccccn3c(=O)c2/C=C(\C#N)c2nc3ccccc3s2)c1C`, the “activity change, negative = inhibition” value is inactive: 2.87%.
In the case of `COc1cc(Cl)c(C)cc1NC(=O)CCCN1C(=O)C(c2ccccc2)Oc2cccnc21` (configuration not stated), the outcome was inactive.
With `O=C(CSc1nc2ccccc2nc1Cc1ccc(F)cc1)Nc1ccc2c(c1)OCO2`, the call was inactive.
Regarding `Cc1ccc(NC(=O)CSc2nccn2C2CCCC2)cc1`, the “activity change, negative = inhibition” value was inactive: -0.908%.
Regarding `Cc1ccc(NC(=O)Cn2cc(S(=O)(=O)c3ccc(F)cc3)c(=O)c3cc4c(cc32)OCO4)cc1`, the molecule was classed as inactive.
Same read-out and setting: then `CC(C)(C)C(=O)Cn1c(=O)n(CCCCCC(=O)NCc2ccc3c(c2)OCO3)c(=O)c2sccc21`, with “inactive”.
For `COc1ccc(OC)c(NC(=O)c2ccc(-c3nc(CSc4ccccc4)c(C)o3)cc2)c1`, the “activity change, negative = inhibition” value is inactive: 3.13%.
As for `CSc1cccc(NS(=O)(=O)c2ccc3[nH]cc(C(=O)N4CCCC4)c(=O)c3c2)c1`, the “activity change, negative = inhibition” value is inactive: 0.715%.
Regarding `Cc1ccc(C(=O)CSc2nc3cc(C(=O)NC4CCCC4)ccc3c(=O)n2CC2CCCO2)cc1` (configuration not stated), the molecule was classed as inactive.
As for `CCCCn1cc(S(=O)(=O)c2ccc(CC)cc2)c(=O)c2cc(F)c(N3CCCC(C)C3)cc21` (configuration not stated), the “activity change, negative = inhibition” value is inactive: 2.69%.
Still for that read-out and setting: as for `COc1ccccc1CCNC(=O)c1ccc(NC(=O)N2CC(C)Sc3ccccc32)cc1` (configuration not stated), the figure is inactive: 0.621%.
Still for that read-out and setting: as for `COc1cc(OC)c(NC(=O)c2c(C)nn(-c3ccc(C)cc3)c2-n2cccc2)cc1Cl`, the figure is inactive: 9.17%.
`Cn1c(=O)n(C)c2cc(N3CCCCC3)c(NC(=O)c3ccc(Cl)cc3)cc21`: the call was inactive.
